From the supplement of paper PMC9446081 come the findings set out here.

Hit rate of the full screen: of about 39,000 compounds, about 220 (0.56%) showed activity. The list shows a part of the results.
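Also: static incubation at 37 °C against the wild-type strain, values averaged over two biological replicates.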

This assay has as its system Escherichia coli K-12 BW25113. As to the kind of experiment: relative growth (OD600 normalised to plate interquartile mean) (fraction); higher = less growth inhibition, active = 0.2 or less. To be noted: 50 µM; LB; incubation time: overnight (16-24 h).
Consider `COc1ccc(NC(=O)Nc2ccc3c(c2)C(=O)N([C@@H](C)CO)C[C@@H](C)[C@@H](CN(C)CC2CCCCC2)OCCCC[C@H](C)O3)cc1`, for which the relative growth was inactive: 0.949.
In the case of `C[C@@H]1CN([C@@H](C)CO)C(=O)Cc2cc(NC(=O)Nc3ccc(F)cc3)ccc2O[C@H]1CN(C)C(=O)Nc1cccc2ccccc12`, the relative growth is inactive: 0.981.
Consider `CN1CCN(C(=O)C[C@H]2CC[C@@H]3[C@H](COC[C@H](O)CN3C(=O)C3CC3)O2)CC1`, for which the relative growth is inactive: 1.01.
For the molecule `C=CC(=O)N1C[C@H]2CC[C@H](O)[C@H]2C1`, the relative growth is inactive: 1.01.
`C[C@H](CO)N1C[C@H](C)[C@H](CN(C)Cc2ccc3c(c2)OCO3)OCCCC[C@H](C)Oc2ccc(NS(=O)(=O)c3ccccc3)cc2C1=O`: the relative growth was inactive: 0.992.
As for `C[C@H]1CCCCO[C@@H](CN(C)Cc2ccc(C(F)(F)F)cc2)[C@@H](C)CN([C@@H](C)CO)C(=O)c2cc(NS(=O)(=O)c3cccs3)ccc2O1`, the figure is inactive: 1.05; as for `Cc1ccnn1-c1ccc(CN)cc1`, inactive: 1.01; as for `C[C@@H]1CN([C@H](C)CO)C(=O)c2cccc(NC(=O)Nc3ccccc3)c2O[C@H]1CN(C)Cc1ccc(C(F)(F)F)cc1`, inactive: 0.838.
As for `CN(C)CCCNC(=O)[C@H]1[C@H](CO)[C@H]2Cn3c(ccc(-c4cccc(C(=O)N(C)C)c4)c3=O)[C@@H]1N2`, the figure is inactive: 1.05.
For `C[C@@H]1CCCCO[C@H](CN(C)C(=O)Nc2ccc(C(F)(F)F)cc2)[C@@H](C)CN([C@@H](C)CO)C(=O)c2cc(NC(=O)CCC(F)(F)F)ccc2O1`, the relative growth is inactive: 1.04.
As for `C[C@H]1CN([C@@H](C)CO)C(=O)c2cc(NC(=O)Nc3ccc(F)cc3)ccc2O[C@@H]1CN(C)CC1CCCCC1`, the figure is inactive: 0.973.
With `O=C(O)c1cc(-c2ccc(F)cc2F)ccc1O` the figure was inactive: 0.72; with `CCSc1cccc2cccnc12`, inactive: 0.897; with `COc1ccc(NC(=O)N(C)C[C@@H]2OCCCC[C@H](C)Oc3ccc(NS(=O)(=O)c4ccc(C)cc4)cc3C(=O)N([C@H](C)CO)C[C@H]2C)cc1`, inactive: 1.02.
Consider `O=C(C[C@H]1CC[C@@H]2[C@H](COC[C@@H](O)CN2C(=O)Nc2cccc(Cl)c2)O1)NCc1ccccc1F`, for which the relative growth was inactive: 0.794.
As for `Cc1noc(C)c1S(=O)(=O)Nc1ccc2c(c1)C(=O)N([C@@H](C)CO)C[C@@H](C)[C@@H](CN(C)S(=O)(=O)c1c(C)noc1C)O2`, the figure is inactive: 0.983; as for `COc1ccccc1CNC(=O)C[C@@H]1C[C@@H]2c3cc(NC(=O)c4ccc5c(c4)OCO5)ccc3O[C@@H]2[C@H](CO)O1`, inactive: 1.04.
Consider `C[C@@H]1CN([C@@H](C)CO)C(=O)Cc2cc(NC(=O)Nc3ccc(C(F)(F)F)cc3)ccc2O[C@@H]1CN(C)CC1CCCCC1`, for which the relative growth was inactive: 1.03.
As to `CC(C)Cn1cnc2ccccc21`, the relative growth was inactive: 1.01.
As for `NS(=O)(=O)c1ccc(NC(=O)C2CC2)cc1`, the figure is inactive: 1; as for `Cc1c(NC(=O)c2cc3c(s2)CCCC3)cccc1-c1cn(C)c(=O)c(Nc2ccc([C@H]3C(=O)N(C)CCN3C)cc2)n1`, inactive: 1.
As for `COc1ccc(CN(C)C[C@H]2OCCCC[C@@H](C)Oc3ccc(NC(=O)Nc4c(C)noc4C)cc3C(=O)N([C@H](C)CO)C[C@@H]2C)cc1`, the relative growth was inactive: 0.894.
With `COc1ccccc1CN(C)C[C@H]1OCc2ccccc2-c2c(n(C)c3ccccc23)C(=O)N([C@H](C)CO)C[C@@H]1C`, the relative growth was inactive: 1.
As for `O=C(C[C@H]1C[C@@H]2c3cc(NS(=O)(=O)c4ccc(F)cc4)ccc3O[C@@H]2[C@@H](CO)O1)NCc1ccccn1`, the figure is inactive: 1.01; as for `Cc1cc(-c2cc[nH]n2)c(C)s1`, inactive: 0.917.
As to `COc1ccc(NC(=O)N(C)C[C@@H]2OCCCC[C@H](C)Oc3ccc(NC(=O)Nc4c(C)noc4C)cc3C(=O)N([C@@H](C)CO)C[C@@H]2C)cc1`, the relative growth is inactive: 1.03.
Regarding `C[C@H]1CN([C@@H](C)CO)C(=O)c2cc(C#CCC3CCCC3)cnc2O[C@H]1CN(C)C(=O)c1cnccn1`, the relative growth was inactive: 0.999.
With `CCc1ccc(NC(=O)C2CCN(S(=O)(=O)c3c(C)[nH]c(=O)[nH]c3=O)CC2)cc1`, the relative growth is inactive: 1.01.
Regarding `C[C@H]1CN([C@@H](C)CO)C(=O)Cc2cc(NC(=O)CCCCCC(=O)Nc3ccccc3N)ccc2O[C@H]1CN(C)Cc1ccc(-c2ccccc2)cc1`, the relative growth was inactive: 0.991.
Regarding `O=C(CCCCC(=O)N/N=C/[C@H](O)[C@H](O)[C@@H](O)[C@@H](O)CO)NO`, the relative growth was inactive: 1.01.
With `CCCN(C)C[C@@H]1OCCCC[C@@H](C)Oc2ccc(NC(=O)C3CCCCC3)cc2C(=O)N([C@@H](C)CO)C[C@@H]1C` the figure was inactive: 0.995; with `C[C@@H]1CN([C@@H](C)CO)C(=O)c2cccc(NC(=O)c3cnccn3)c2O[C@H]1CN(C)S(C)(=O)=O`, inactive: 1.03; with `CCCC(C(=O)OCCN(CC)CC)(c1ccccc1)c1ccccc1.Cl`, inactive: 0.943.
As for `C[C@@H]1CN([C@@H](C)CO)C(=O)c2cccc(NC(=O)c3ccncc3)c2O[C@H]1CN(C)S(=O)(=O)c1cccs1`, the figure is inactive: 0.986; as for `C[C@H]1CN([C@@H](C)CO)S(=O)(=O)c2ccc(-c3cccc(C(=O)N(C)C)c3)cc2O[C@H]1CN(C)C(=O)Cc1ccccn1`, inactive: 0.984; as for `COc1ccc(NC(=O)Nc2ccc3c(c2)C(=O)N([C@@H](C)CO)C[C@@H](C)[C@H](CN(C)S(=O)(=O)c2ccc(Cl)cc2)OCCCC[C@@H](C)O3)cc1`, inactive: 0.975.
As for `Cc1ccc(S(=O)(=O)N[C@@H]2CC[C@@H](CCNC(=O)CN3CCOCC3)O[C@@H]2CO)cc1`, the figure is inactive: 1.01; as for `O=C(O)[C@H]1C2C(=O)N(C3CC3)C[C@]23C=C[C@H]1O3` (stereo partly drawn), inactive: 1.01; as for `C[C@H](CO)N1C[C@H](C)[C@@H](CN(C)Cc2ccc(C(=O)O)cc2)OCCCC[C@H](C)Oc2ccc(NS(=O)(=O)c3ccccc3)cc2C1=O`, inactive: 0.973.
As for `COc1ccc(COC[C@]23N=C4SCC(=O)N4[C@H](c4ccccc4O2)[C@H]3COC(=O)NCCCCCC(=O)NO)cc1`, the relative growth is inactive: 0.912.
With `C[C@@H]1CN([C@@H](C)CO)S(=O)(=O)c2ccc(C#CCC3CCCC3)cc2O[C@@H]1CN(C)C(=O)CN(C)C` the figure was inactive: 0.958; with `C[C@H]1CN([C@@H](C)CO)C(=O)c2cc(/C=C/c3ccccc3)cnc2O[C@H]1CN(C)C(=O)Nc1ccc(C(F)(F)F)cc1`, inactive: 0.978; with `CO[C@H]1CN(C)C(=O)c2cc(NC(=O)Nc3ccccc3F)ccc2OC[C@H](C)N(CCC(F)(F)F)C[C@@H]1C`, inactive: 1.02.
Take `Cc1ccc(S(=O)(=O)Nc2ccc3c(c2)C(=O)N(C)[C@H]2CC[C@@H](CC(=O)NCCc4ccncc4)O[C@H]2CO3)cc1`: the relative growth is inactive: 0.985.
With `C[C@H](CO)N1C[C@H](C)[C@@H](CN(C)CC2CCOCC2)Oc2ncc(C#CCc3ccccc3)cc2C1=O` the figure was inactive: 0.993.
In the case of `Cc1noc(C)c1S(=O)(=O)Nc1ccc2c(c1)C(=O)N([C@H](C)CO)C[C@H](C)[C@H](CN(C)Cc1ccc(-c3ccccc3)cc1)O2`, the relative growth is inactive: 0.965.
As for `CO[C@H]1CN(C)C(=O)c2cc(NC(=O)c3ccccc3)ccc2OC[C@H](C)N(C(=O)CN(C)C)C[C@H]1C`, the figure is inactive: 0.982; as for `C/C=C/c1cnc2c(c1)C(=O)N([C@H](C)CO)C[C@@H](C)[C@H](CN(C)S(=O)(=O)c1ccc(OC)cc1)O2`, inactive: 1.02.
With `CCCCNC(=O)NS(=O)(=O)c1ccc(C)cc1` the figure was inactive: 0.963; with `c1ccc2n[nH]nc2c1`, inactive: 0.968; with `CN(C)c1ccc(CN)cn1`, inactive: 0.992.
With `COc1ccc(NC(=O)Nc2ccc3c(c2)C(=O)N([C@@H](C)CO)C[C@@H](C)[C@@H](CN(C)C(=O)c2ccccc2)OCCCC[C@@H](C)O3)cc1`, the relative growth was inactive: 0.978.
Take `C[C@@H]1CN([C@@H](C)CO)S(=O)(=O)c2ccc(C#Cc3ccccc3)cc2O[C@@H]1CN(C)C(=O)Cc1ccccn1`: the relative growth was inactive: 0.988.
With `Cc1noc(C)c1NC(=O)Nc1ccc2c(c1)CC(=O)N([C@H](C)CO)C[C@@H](C)[C@H](CN(C)Cc1ccc(Oc3ccccc3)cc1)O2` the figure was inactive: 0.889; with `CN(C)N=Nc1[nH]cnc1C(N)=O`, inactive: 0.387; with `CC1(C)OC2CC3C4CC(F)C5=CC(=O)C=CC5(C)C4(F)C(O)CC3(C)C2(C(=O)CO)O1` (stereo not drawn), inactive: 1.19.
With `C[C@@H]1CN([C@H](C)CO)C(=O)c2cc(NS(=O)(=O)c3ccccc3)ccc2O[C@@H](C)CCCCO[C@@H]1CN(C)C(=O)NC1CCCCC1`, the relative growth was inactive: 0.987.
As for `COc1ccc(NC(=O)N(C)C[C@@H]2OCCCC[C@@H](C)Oc3ccc(NS(=O)(=O)c4ccc(OC)cc4)cc3C(=O)N([C@@H](C)CO)C[C@@H]2C)cc1`, the figure is inactive: 1.02; as for `O=C(N[C@H]1CC[C@H](CC(=O)N2CCOCC2)O[C@H]1CO)c1ccccn1`, inactive: 0.989; as for `C[C@@H]1CN([C@H](C)CO)C(=O)c2cc(NS(=O)(=O)c3cccs3)ccc2O[C@@H](C)CCCCO[C@H]1CN(C)C(=O)C1CCCCC1`, inactive: 0.986.
As for `CC(C)NC(=O)Nc1ccc2c(c1)CC(=O)N([C@H](C)CO)C[C@@H](C)[C@@H](CN(C)Cc1ccc(C(=O)O)cc1)O2`, the figure is inactive: 0.994.
As for `C[C@H]1CCCCO[C@H](CN(C)Cc2ccc(C(F)(F)F)cc2)[C@@H](C)CN([C@@H](C)CO)C(=O)c2cc(NS(=O)(=O)c3cccs3)ccc2O1`, the figure is inactive: 0.992.
As to `CC1=C(C(=O)O)N2C(=O)[C@H](NC(=O)[C@@H](N)c3ccccc3)[C@H]2SC1`, the relative growth is inactive: 1.02.
